Measurements reported in the RNAGym collection of RNA variant scans (doi:10.1093/nar/gkz1192).
The source gives no read counts; variants with many changes may rest on few reads.

B1: CPEB3 Ribozyme (parent)
chain: UAACAGGGGGCCACAGCAGAAGCGUUCACGUCGCAGCCCCUGUCAGAUUCUGGUGAAUCUGCGAAUUCUGCUGUAUAUCUC

Variants of: B1
Assay: self-cleavage, relative activity (ratio to wild type); higher = more cleavage; in vitro, sequencing
Summary of the method: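 Relative activity compares each variant's cleaved/total read fraction with that of the unmutated ribozyme. To get these fractions, barcoded CPEB3 ribozyme libraries from rounds of error-prone PCR were transcribed with T7 RNA polymerase for 5 hours at 37°C and then given 15 min of DNase I treatment before EDTA was added. The RNAs were reverse transcribed with template switching and sequenced on Illumina, and DNA sequencing linked barcodes to variants. A minimum of 5 reads applied, and three batches were averaged.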

| Variant | self-cleavage |
| --- | --- |
| UAACAGGGGGCCACAGCAGAAGCGUUCACGUCGCAGCCCCUGUCAGGUUCUGGUGAAUCUGCGAAUCCUGCUGUAAAUCUC [A47G U67C U76A] | 0.3 |
| UAACAGGGGGCCACAGCAGAAGCGUUCACGUCGCAGCCCCUGUCAGGUUCUGGUGAAUCUGCGAAUUCAGCUGUAUAUAUC [A47G U69A C79A] | 0.91 |
| UAACAGGGGGCCACAGCAGAAGCGUUCACGUCGCAGCCCCUGUCAGGUUCUGGUGAAUCUGCGAAUUCAGCCGUAUACCUC [A47G U69A U72C U78C] | 0.62 |
| UAACAGGGGGCCACAGCAGAAGCGUUCACGUCGCAGCCCCUGUCAGGUUCUGGUGAAUCUGCGAAUUCAGCUGGAUAUCUC [A47G U69A U74G] | 0.61 |
| UAACAGGGGGCCACAGCAGAAGCGUUCACGUCGCAGCCCCUGUCAGGUUCUGGUGAAUCUGCGAAUUCAGCUGUAUAACUC [A47G U69A U78A] | 0.85 |
| UAACAGGGGGCCACAGCAGAAGCGUUCACGUCGCAGCCCCUGUCAGGUUCUGGUGAAUCUGCGAAUUCCGCUGUACAUCUC [A47G U69C U76C] | 0.78 |
| UAACAGGGGGCCACAGCAGAAGCGUUCACGUCGCAGCCCCUGUCAGGUUCUGGUGAAUCUGCGAAUUCCGCUGUAUACCCC [A47G U69C U78C U80C] | 0.43 |
| UAACAGGGGGCCACAGCAGAAGCGUUCACGUCGCAGCCCCUGUCAGGUUCUGGUGAAUCUGCGAAUUCGGCAGUAUAACUC [A47G U69G U72A U78A] | 0.38 |
| UAACAGGGGGCCACAGCAGAAGCGUUCACGUCGCAGCCCCUGUCAGGUUCUGGUGAAUCUGCGAAUUCUGCAGUAUACCCC [A47G U72A U78C U80C] | 1.04 |
| UAACAGGGGGCCACAGCAGAAGCGUUCACGUCGCAGCCCCUGUCAGGUUCUGGUGAAUCUGCGAAUUCUGCAGUAUAUCCC [A47G U72A U80C] | 1.23 |
| UAACAGGGGGCCACAGCAGAAGCGUUCACGUCGCAGCCCCUGUCAGGUUCUGGUGAAUCUGCGAAUUCUGCCGUGUAUCUC [A47G U72C A75G] | 1.15 |
| UAACAGGGGGCCACAGCAGAAGCGUUCACGUCGCAGCCCCUGUCAGGUUCUGGUGAAUCUGCGAAUUCUGCUGAAUAUCCC [A47G U74A U80C] | 1.22 |
| UAACAGGGGGCCACAGCAGAAGCGUUCACGUCGCAGCCCCUGUCAGGUUCUGGUGAAUCUGCGAAUUCUGCUGUAUACCCC [A47G U78C U80C] | 0.7 |
| UAACAGGGGGCCACAGCAGAAGCGUUCACGUCGCAGCCCCUGUCAGUUUCUGGUGGAUCUGCGAACUCUUCUGUAUAUCUC [A47U A56G U66C G70U] | 0.21 |
| UAACAGGGGGCCACAGCAGAAGCGUUCACGUCGCAGCCCCUGUCAGUUUCUGGUGUAUCUGCAAAUACUGCUGUAUAUCCC [A47U A56U G63A U67A U80C] | 0.05 |
| UAACAGGGGGCCACAGCAGAAGCGUUCACGUCGCAGCCCCUGUCAGUUUCUGGUGAGUCUGCGGAUUCUGCCGCAUAUCUC [A47U A57G A64G U72C U74C] | 0.39 |
| UAACAGGGGGCCACAGCAGAAGCGUUCACGUCGCAGCCCCUGUCAGUUUCUGGUGAGUCUGCGUAUUCUGCUAUAUAUCUC [A47U A57G A64U G73A] | 0.23 |

| Variant | self-cleavage |
| --- | --- |
| UAACAGGGGGCCACAGCAGAAGCGUUCACGUCGCAGCCCCUGUCAGUUUCUGGUGAGUCUGCGAACUCUGCUGUAUAUCUC [A47U A57G U66C] | 0.15 |
| UAACAGGGGGCCACAGCAGAAGCGUUCACGUCGCAGCCCCUGUCAGUUUCUGGUGAUUCCGCGAAUUCAGCUAUAUAUCUC [A47U A57U U60C U69A G73A] | 0.17 |
| UAACAGGGGGCCACAGCAGAAGCGUUCACGUCGCAGCCCCUGUCAGUUUCUGGUGAAUCUGCGGAUUCUGCUGAAUAUCUC [A47U A64G U74A] | 0.75 |
| UAACAGGGGGCCACAGCAGAAGCGUUCACGUCGCAGCCCCUGUCAGUUUCUGGUGAAUCUGCGAGUUCUGCUGUACAUCUC [A47U A65G U76C] | 0.12 |
| UAACAGGGGGCCACAGCAGAAGCGUUCACGUCGCAGCCCCUGUCAGUUUCUGGUGAAUUUGCGAACUCUGCUGUAUACCUC [A47U C59U U66C U78C] | 0.11 |
| UAACAGGGGGCCACAGCAGAAGCGUUCACGUCGCAGCCCCUGUCAGUUUCUGGUCUAUCCGCGAAUUCUGCUGUAUAUCUC [A47U G55C A56U U60C] | 0.17 |
| UAACAGGGGGCCACAGCAGAAGCGUUCACGUCGCAGCCCCUGUCAGUUUCUGGUGAAUCUGCAAAUUCCGCUGUAUAUCUC [A47U G63A U69C] | 0.22 |
| UAACAGGGGGCCACAGCAGAAGCGUUCACGUCGCAGCCCCUGUCAGUCUCUGGUGAAUCUGCGGAUUCUGCUGUAUAUCUC [A47U U48C A64G] | 0.16 |
| UAACAGGGGGCCACAGCAGAAGCGUUCACGUCGCAGCCCCUGUCAGUCUCUGGUAAAUCUGCGUAUUCGGCUGUACAUCCC [A47U U48C G55A A64U U69G U76C U80C] | 0.05 |
| UAACAGGGGGCCACAGCAGAAGCGUUCACGUCGCAGCCCCUGUCAGUCUCCGGCGAAUCUGCGAAUUCUGCUGUGUAUCUC [A47U U48C U51C U54C A75G] | 0.17 |
| UAACAGGGGGCCACAGCAGAAGCGUUCACGUCGCAGCCCCUGUCAGUCUCUGGUGAAUCAGCGAAUUCCGCUGUACAUCUC [A47U U48C U60A U69C U76C] | 0.15 |
| UAACAGGGGGCCACAGCAGAAGCGUUCACGUCGCAGCCCCUGUCAGUCUCUGGUGAAUCUGCGAAUUCCGCUGCAUAUCUC [A47U U48C U69C U74C] | 0.14 |
| UAACAGGGGGCCACAGCAGAAGCGUUCACGUCGCAGCCCCUGUCAGUCUCUGGUGAAUCUGCGAAUUCUGCAGUAUAUCUC [A47U U48C U72A] | 0.1 |
| UAACAGGGGGCCACAGCAGAAGCGUUCACGUCGCAGCCCCUGUCAGUUACUGGUGAACCUGCGAAUUCUGCUGUACAUCUC [A47U U49A U58C U76C] | 0.21 |
| UAACAGGGGGCCACAGCAGAAGCGUUCACGUCGCAGCCCCUGUCAGUUCCUGGCGAAUCUGCGAAUUCUGCUGUAUAUCUC [A47U U49C U54C] | 0.23 |
| UAACAGGGGGCCACAGCAGAAGCGUUCACGUCGCAGCCCCUGUCAGUUCCUGGUGAAUCUGCGAAUUCCGCUGUAUAUCUC [A47U U49C U69C] | 0.28 |
| UAACAGGGGGCCACAGCAGAAGCGUUCACGUCGCAGCCCCUGUCAGUUGCUGGUGAAUCUGCGUAUUCUGCUGUAUAUCUC [A47U U49G A64U] | 0.18 |
